Test results published in the supplement of paper PMC11417369.
± gives the standard deviation of the averaged measurements. Some of the results follow.

What follows are sequences tested on PfAP2-G AP2 domain (GST-tagged) (assay: gcPBM binding intensity (ln(normalized median fluorescence intensity)); higher = stronger DNA binding).
How it was run: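 Binding intensity values are the highest Masliner-normalised natural-log median intensity among replicate spots of either probe orientation. The binding step lasted 1 h in 1× PBS with 1% milk, 0.2 mg/ml BSA, 0.5% salmon testes DNA and 0.03% Triton X-100, using GST-tagged P. falciparum DNA-binding domains expressed in E. coli on an Agilent 4 × 180k array of primer-extended double-stranded 36-bp intergenic genomic probes plus negative controls. Alexa488 anti-GST antibody and a 488 nm scan detected bound protein.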

Sequence | gcPBM binding intensity (ln)
CATTTATTTTTGTTCTGTACATAAAGATGAACAAAA [XGTACX_site6797] | 11.1 ± 0.83
ATTTACATAAATTGCATATATCGATGTAAATAAATA [CACACA_negctrl_site1150] | 9.725 ± 0.092
TCTTTTTAAACTAATAGTACATATATATTAATAAAT [XGTACX_site4217] | 11 ± 0.73
AAATAATAAAAAAAATGTACACGTAAATATTATATT [XGTACX_site8125] | 11.5 ± 0.92
TTTTATATAAAATCGTGTACATACCATTTCCTATTA [XGTACX_site5159] | 11.5 ± 0.81
AAAAAAAAAAGAAACACACACATTTGTATATAATAT [CACACA_site2078] | 9.92 ± 0.17
TTGATTACACTGAAGTGTACATATATATATATATAT [XGTACX_site3532] | 11.2 ± 0.75
AAAATTAATAAATAAACACACATATATATATATATA [CACACA_site2598] | 9.93 ± 0.35
CATATAAAAATGTGCACACACACACCCATATATATT [CACACA_site1526] | 10.4 ± 0.41
CAAAACAAAACGTATGCACACAATTAATATATTAAA [CACACA_site3405] | 10.2 ± 0.21
TTTTTGCCATATTACACACACACATGTAAACCCCCT [CACACA_site1647] | 10.9 ± 0.69
GTGAAATATGCAAACACACACGAGAAAAATGTATAT [CACACA_site7488] | 10.13 ± 0.021
TATTTTTTTCTTACATACTAATTTGGTACTCACATA [TGCATGCA_negctrl_site81] | 11 ± 0.75
AAATAAATCTTATGCACACAAATAATTAATTAAACA [CACACA_site1693] | 10.06 ± 0.014
AGAGTTCTCATATGCACACAAAAAACTTTCATTTAT [CACACA_site45] | 10.2 ± 0.18
TAAATAAGCACATACACACATACATACATACATAAA [CACACA_site4017] | 10.1 ± 0.16
AACCCCGTGGAAATATGTACATATAAATATATAAAT [XGTACX_site2094] | 11.1 ± 0.57
TATCCTAACTTTAGATGTACACAAATAAAAAAAAAA [XGTACX_site4491] | 11.7 ± 0.91
ACAAAATGTAGAAAATGTACAAAATTAACAAAAGAA [XGTACX_site5019] | 10.7 ± 0.3
ATTCAATCTTTTAATACACACAATTTATTTCAAAAC [CACACA_site835] | 10.1 ± 0.11
TGTACATATATATAGATATATATAGATATATATATA [CACACA_negctrl_site1678] | 10.5 ± 0.28
CCATATAAAATATAAAAACACACGTATATATACATA [CACACA_site1511] | 9.955 ± 0.021

Sequence | gcPBM binding intensity (ln)
TTTTAAAAAGATCATTAAAAAAAAAAAAAGAACAAA [CACACA_negctrl_site528] | 10 ± 0.23
ATAATATAACAATACGCACACGTATACAAAAAAAAA [CACACA_site5703] | 10.6 ± 0.47
AAATAATGGTTAGCTACACACAAAGCATTTTTTGAA [CACACA_site1016] | 9.79 ± 0.042
AAAATACAAACAAGTGGTACTGTTTATAAATGGTTG [XGTACX_site1503] | 10.9 ± 0.52
TGTCTTGTAAATTATTGTACTATTTAAAGTATACAA [XGTACX_site7864] | 11.2 ± 0.81
TTGTATATATTTATATGTACATATATTACTTTTGCT [XGTACX_site2449] | 11.2 ± 0.73
AATGTTTATTAACATTGTACTTATAATATGTCACAA [XGTACX_site2974] | 11.3 ± 0.98
TATCATGGGTGTATTTCACACACGGATAATCATTTA [CACACA_site8211] | 10.1 ± 0.28
AATAATAAAGATCAATGTACATAATAAAAAAAAAAA [XGTACX_site2692] | 10.9 ± 0.61
TTATACCATATTTATAGTACGTACAAATAAATCAAT [XGTACX_site4975] | 11.6 ± 0.93
AAGAAAAAAAAAAAAAGTACATGCAATATGGATCTT [XGTACX_site3106] | 11.3 ± 0.76
TTATTAAGTAAATCACATTTAATTTTTTTTTTTTTT [CACACA_negctrl_site1280] | 9.31 ± 0.3
CACATATAAATATTAACACACATAATGAGTTATATA [CACACA_site7316] | 9.79 ± 0.12
TTTTTATTGTTATAGTTATAATATATTATTTGATTA [XGTACX_negctrl_site27] | 9.67 ± 0.11
TTTTTTTTTTTTGTAACACACAATAATATAACATTA [CACACA_site3411] | 10 ± 0.49
AATAATTGTTAAAGCTGTACAATACTTATATAAGAA [XGTACX_site5729] | 11 ± 0.61
AAACAACATATATTAATATGTACATATATATAGATA [GTGCAC_negctrl_site229] | 11.2 ± 0.62
AATGGAAATTTTTCTTGTACACATATATGACATGTT [XGTACX_site1691] | 11.3 ± 0.86
TTTTTTTTTACTGCATGTACTTGATGTAAATAAATT [XGTACX_site3045] | 11.1 ± 0.78
TATAGAATAATCTATAAACACACAAACACAACAAAA [CACACA_site9374] | 10.4 ± 0.5
AAAAGATAATTATGCACACACACACCCCCACCCAAC [CACACA_site2570] | 11.6 ± 0.83
TTATAAATATAATTTTGTACATATATATATATATAC [XGTACX_site5064] | 10.8 ± 0.41

Sequence | gcPBM binding intensity (ln)
TTAGAACTATTTTATACATGCAGTTATTTAATACTT [TGCATGCA_site1039] | 9.905 ± 0.021
AATATGACGTAGTGGTGTACACACATGGTACCTTTA [XGTACX_site3147] | 11.7 ± 0.83
ACAACAATTCACTTGATGCACTAACCAAAAAAATAA | 10.12 ± 0.085
CACGCACGCAGACACACACACACACGCACATATATA [CACACA_site6303] | 10.5 ± 0.35
AACGTAAAACATATCTATCAAAATAAATCATTAATC [TGCATGCA_negctrl_site68] | 9.59 ± 0.33
AATATAATAATATTTTGTACATATCCTATGTATGAG [XGTACX_site8601] | 10.7 ± 0.23
ATTAAAATATAAGTCACACATATATATATATATATA [CACACA_site6145] | 10 ± 0.38
TATTTTTTTTTATTTTTTTTTATTTTGTTTTTTTAT [TGCATGCA_negctrl_site315] | 9.44 ± 0.071
ATATATTTTCCTTCAAGTACACATATAAATGTGTAT [XGTACX_site6633] | 11.4 ± 0.83
AAAAAAATAATCATCACACACGGAGAATGTCCAATA [CACACA_site5305] | 10.28 ± 0.078
ACATATATTTTTTTTTGTACATATAAATATATATAT [XGTACX_site6491] | 11.1 ± 0.48
TTTTTTTTTAAATGTTGTACATTATATTTGTGTATA [XGTACX_site8354] | 11.1 ± 0.73
GTATATTAATAAACATGTACACAATTTATTTATATT [XGTACX_site1012] | 11.5 ± 0.98
TTTTTTTTTTGAAGTGCATGTTACGATGAAAAAAAA [TGCATGCA_site64] | 10.4 ± 0.41
CTAAATAACTTAAGGTGTACGTTTCCAATAAAAAAA [XGTACX_site1742] | 11.4 ± 0.9
ACATATAAAATGATGCGTACATATTTGATCATATAC [XGTACX_site153] | 11.4 ± 0.94
TGTAGCCTGGAGAAGAGTACATAGTATCTGGTAGCT [XGTACX_site4943] | 11.2 ± 0.79
CGTATGTGCGGACATGCATGCAATATACAAGAAAAA [TGCATGCA_site145] | 11.2 ± 0.98
GAAAATATTTCCGTATGTACTTATTTTAGTCTACTA [XGTACX_site471] | 11.4 ± 1.1
AAAAAAAAAAAAAAATGTACAAATAAAGAAATATGA [XGTACX_site4371] | 10.9 ± 0.64
ATATATTAATAATTTTGTACGCATTTCCTTTTTATT [XGTACX_site1638] | 11.5 ± 1
TGACCTGTTCAGGTAACACACATATAAACACATACA [CACACA_site4186] | 10.2 ± 0.2

Sequence | gcPBM binding intensity (ln)
AATATTTTCTTGTACGCATGCACATCCAAATTATAT [TGCATGCA_site873] | 11.6 ± 0.83
TCTTAAAAGGGGAATGGAATGGAGAAAATGAAATAA [GTGCAC_negctrl_site30] | 9.84 ± 0.11
AGGTTCTTTTTAAATGGTACACATAATTTGAAGATA [XGTACX_site400] | 11.3 ± 0.83
GTGTATAGAATGGTTTCTTTTAAGGTTTTTATTTTT [CACACA_negctrl_site564] | 10.4 ± 0.26
ATACCCACTTAAAATACACACACACCGAAAAAAAAA [CACACA_site8867] | 10.3 ± 0.38
ATGAATACAAAATTATACAAAATTATCAAAAGTATG [CACACA_negctrl_site1453] | 9.88 ± 0.057
AAAATATATTTAAATTGTACACGTTACCATAACAAT [XGTACX_site2598] | 11.4 ± 0.89
TGCAGTCTGGAGAAACGTACATAGTATCTGGTAGCT [XGTACX_site4937] | 11.2 ± 0.78
ATACATAAATATATATGTACATATATATATATATAT [XGTACX_site1055] | 11.3 ± 0.78
CTTTTTATTTAGAACACACACAAAAAAAAAAAAAAA [CACACA_site1761] | 10.1 ± 0.51
TTTGTTATTTTTTATTGTACTTTTTTTCTTTCATAA [XGTACX_site4302] | 11.5 ± 0.73
ATTAAATGTTATATTTGTACATATTATATATATATA [XGTACX_site5095] | 10.9 ± 0.58
TCCATATTTGTTCACACACACACATATTTATATATA [CACACA_site3570] | 10.2 ± 0.15
ATACATAAATTTAGAAGTACATAACAAATTTTTAAA [XGTACX_site7448] | 11.4 ± 0.88
AATCAAAACAACAATAGTACATAAAAAAACAAAACA [XGTACX_site4181] | 11.2 ± 0.8
TTTTTTAAATGTATTAAAATTATATATATATATATA [GTGCAC_negctrl_site570] | 9.96 ± 0.61
TTACACATGAGAAAATGTACATATAATAAAATATGT [XGTACX_site904] | 11.1 ± 0.55
TTATATTTCAATCATATTGTCACAAGTCATATTTAT [GTGCAC_negctrl_site366] | 9.89 ± 0.14
AACAAAAAAAAAAAAAAAAAAAAAAAAAAAAAAATG [CACACA_negctrl_site1127] | 10 ± 0.33
ATGGACAAGTTAAACGCACACAAATATATACACCCA [CACACA_site8478] | 10.6 ± 0.39
AATAAAAAAAATAGCATACACACATATATACATATA [CACACA_site659] | 9.75 ± 0.028
TATAATAATAATTATACATGCATGAATATTTATATG [TGCATGCA_site811] | 9.82 ± 0.099
